According to the supplement of paper PMC12067093, “Discovery and optimisation of a covalent ligand for TRIM25 and its application to targeted protein ubiquitination” (Chemical Science, 2025):
Targets with the largest changes are over-represented here; the source holds about 21,000 in all.

Compound: CC1Cc2ccccc2N1C(=O)C1CCCN(C1)C(=O)CCl (mixture of isomers) [TRIM25 ligand 11 (diastereomer mixture)]
Experiment: probe-labelled cysteine peptide fold change vs DMSO (competition) (log2 fold change); higher = less target engagement (more negative = stronger competition)
Conditions: THP-1, incubation time: 4 h
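Further: competitive chemoproteomic profiling in live THP-1 cells with an iodoacetamide desthiobiotin (IA-DTB) probe, comparing probe-labelled peptide intensities in compound-treated cells against DMSO-treated controls.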

Target | probe-labelled cysteine peptide fold change (10 µM) | probe-labelled cysteine peptide fold change (50 µM)
CAP1_Q01518_416_TDGCHAYLSK (UniProt Q01518) | 0.0498 | -0.0228
CDK12_Q9NYV4_862_CSNILLNNSGQIK (UniProt Q9NYV4) | -0.0946 | -0.186
CINP_Q9BW66_120_GICELENYHYGEESK (UniProt Q9BW66) | -0.202 | -0.0294
CCT5_P48643_440_CPTLEQYAMR (UniProt P48643) | 0.0206 | -0.0638
CDC42_P60953_105_EKWVPEITHHCPK (UniProt P60953) | -0.809 | -0.493
CHM_P24386_406_HSVQCLVVDK (UniProt P24386) | 0.0368 | 0.211
CEPT1_Q9Y6K0_11_CGDSHPESPVGFGHMSTTGCVLNK (UniProt Q9Y6K0) | -0.0475 | -0.586
CAND1_Q86VP6_179_QGGLLVNFHPSILTCLLPQLTSPR (UniProt Q86VP6) | 0.217 | -0.325
CMSS1_Q9BQ75_121_RLVIELEELNLPDSCFLK (UniProt Q9BQ75) | -0.0113 | -0.228
CDC20_Q12834_472_CFELDPAR (UniProt Q12834) | -0.00368 | -0.00419
COPB1_P53618_102_LLHEMILVCDAYRK (UniProt P53618) | -0.45 | -0.0937
CIC_Q96RK0_506_SSFTHCRPPLDPEPPGPPDPPVAFGK (UniProt Q96RK0) | 0.0115 | -0.206
CHD9_Q3L8U1_993_CVIIDEAHR (UniProt Q3L8U1) | -0.0433 | 0.00104
CARD19_Q96LW7_7_TDQTYCDR (UniProt Q96LW7) | 0.557 | 0.449
CABLES2_Q9BTV7_181_IVLICAK (UniProt Q9BTV7) | 0.0124 | 0.153
